Patent US20100119516A1, “ANTI-TGF-BETA RECEPTOR II ANTIBODIES” (priority 2008, published 2010)

Legend:
[1] = target: T1, extracellular domain of human TGFβRII (Homo sapiens, UniProt P37173); assay: Surface plasmon resonance (BIAcore 2000), human TGFβRII extracellular domain; type: binding; conditions: room temperature (20-25° C.)
T1 construct: made in house
Procedure: Kinetic analyses of the mAbs are performed by immobilization of a fusion protein of recombinant extracellular domain of either mouse TGFβRII (SEQ ID NO: 51), or the extracellular domain of human TGFβRII (SEQ ID NO: 52) linked, respectively, with either mouse or human Fc or heavy chain constant region, onto a sensor surface at a concentration of from 5 to 100 nM.

mouse TGFβRII = target: T2, mouse TGFβRII (Mus musculus, UniProt Q62312); assay: Species specificity of anti-human TGFβRII mAbs by ELISA; type: binding
T2 construct: made in house
T2 sequence (Q62312 24-184 isoform Q62312-1): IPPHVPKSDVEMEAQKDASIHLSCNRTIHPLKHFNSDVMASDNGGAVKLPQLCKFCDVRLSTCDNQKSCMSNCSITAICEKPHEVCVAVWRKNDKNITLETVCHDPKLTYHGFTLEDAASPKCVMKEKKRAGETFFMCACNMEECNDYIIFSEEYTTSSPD
From the text: At day 10 to 12 post-fusion, the hybridomas are screened for antibody production and specific binding activity of culture supernatants with TGFβRII protein in ELISA-based binding and blocking assays. Specifically, hybridomas producing anti-TGFβRII mAbs are first identified by detection of TGFβRII-bound antibody with a goat anti-human kappa light chain or anti-mouse IgG horse radish peroxidase (HRP) conjugated antibody according to the following procedure. Human TGFβRII-Fc or mouse TGFβRII-Fc is coated at 100 ng/well on 96 microtiter plates at 4° C. overnight. The coated plates are blocked with the blocking buffer (PBS 0.05% TWEEN® 20 containing 5% dry milk) at room temperature for 2 hours. Hybridoma supernatants or purified antibodies are diluted in PBS with 2% bovine serum albumin (BSA) and 0.05% TWEEN® 20 (ELISA buffer) and incubated in TGFβRII-coated, 96-well, microtiter plates for 30 minutes. […] The absorbance at 450 nanometers (nm) is read for quantification of binding activity of antibodies. […] The absorbance at 405 nm is read for quantification of TGFβRII-binding to TGFβ1, TGFβ2, and TGFβ3. Optical density (OD) values are read on a microtiter plate reader (Molecular Devices Corp., Sunnyvale, Calif.).
The specificity of anti-human TGFβRII mAbs is determined by measuring the reactivity of the antibodies to human TGFβRII or mouse TGFβRII by ELISA.

T1 sequence (P37173 23-166): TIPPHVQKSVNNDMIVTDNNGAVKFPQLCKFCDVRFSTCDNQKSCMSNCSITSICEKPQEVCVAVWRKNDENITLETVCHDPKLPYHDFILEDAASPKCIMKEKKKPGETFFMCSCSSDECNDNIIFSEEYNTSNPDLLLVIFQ

Koff [1]: 3.4e-05 s⁻¹
Kon [1]: 430000 M⁻¹ s⁻¹
blocking of human TGFβRII binding to mouse TGFβRII (mouse TGFβRII): do not block
cross-reactivity with mouse TGFβRII (mouse TGFβRII; ELISA): intermediate or minimal cross reactivity
B1: mAb TGF2: anti-human TGFβRII human IgG1 mAb; HCVR SEQ ID NO: 29, LCVR SEQ ID NO: 31, HC SEQ ID NO: 41, LC SEQ ID NO: 43 (antibody)
heavy: QVQLVQSGAAVKKPGESLKISCKGSGYRFTSYWIGWVRQMPGKGLEWMGIIYPGDSDTRYSPSFQGQVTISAGKSISTAYLQWSSLKASDTAMYYCARHGRGYNGYEGAFDIWGQGTMVTVSSASTKGPSVFPLAPSSKSTSGGTAALGCLVKDYFPEPVTVSWNSGALTSGVHTFPAVLQSSGLYSLSSVVTVPSSSLGTQTYICNVNHKPSNTKVDKRV[here human IgG1 Fc without letters]
light: [here about 200 residues without letters]
